Data: PubChem BioAssay (NCI)
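Five concentrations, 48 hours, 96-well plates. At the GI50, growth is halved. TGI is the concentration that stops growth completely.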

system: NCI-H322M lung; assay: growth of human tumour cells (NCI), 48 h

Row | Structure (SMILES) | TGI [µM] | GI50 [µM]
1 | CC1=C2C(O)C(C(C)C(=O)NC(C)C)CCC2(C)C=CC1=O (stereo not drawn) | > 100 | –
2 | CC1(C)OC(=S)N(c2ccccc2)C12C=Cc1cc3ccccc3cc1O2 (stereo not drawn) | > 100 | –
3 | CN(C(=O)c1cccs1)C(=S)N1CCN(c2ccccc2)CC1 | > 100 | –
4 | Cc1cccc(NC(=O)CC#N)c1Cl | > 100 | –
5 | CC1=C(c2cc(C(=O)Nc3nccs3)nc(NC#N)n2)Sc2ccccc2N1 | > 100 | –
6 | CC(=O)c1ccc(NCN2C(=O)c3ccccc3C2=O)cc1 | > 100 | –
7 | O=C1C[C@H]2[C@H](c3ccc(Br)cc3)[C@H]3C(=O)c4ccccc4NC(=O)[C@@H]3[C@@]2(O)c2ccccc2N1 | 72.4 | –
8 | Cc1cc2c(c(N)c1C)C(=O)c1ccccc1C2=O | > 100 | –
9 | N=c1ccn2c(n1)O[C@@H]1[C@@H](O)[C@H](CO)O[C@@H]12 | > 100 | 9.11
10 | CC(=O)OC1COC(Nn2c(=O)[nH]c3ccccc3c2=O)C(OC(C)=O)C1OC(C)=O (stereo not drawn) | > 100 | –
11 | BrC12c3ccccc3Sc3ccccc3C1(Br)c1ccccc12 (stereo not drawn) | > 100 | –
12 | Cc1nc2c(ncn2CCO)c(=O)[nH]1 | > 100 | –
